Reference: PubChem BioAssay AID1963576 (National Center for Advancing Translational Sciences (NCATS), 2024)
About 60 (0.1%) of roughly 46,000 compounds were called active. Inconclusive results (about 3%) are left out. The call rests on the fitted dose curve; in most records, active means well fitted inhibition curve with a large enough effect; inconclusive means small, poorly fitted or top-dose-only effect; inactive means no such curve, though single readings can be large or run the other way. The list shows a part of the results.

experiment: Primary qHTS assay for Inhibitors of ovarian cancer metastasis using an organotypic tumor microenvironment (TME) model.; further: nearly all actives have a fitted effect of over 65% in size;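 on activity change, negative = inhibition: plate controls were DMSO wells for no effect and tomatine positive control wells for full effect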; details: SKOV3ip1-GFP adhesion/invasion on 3D omental model, fluorescence; series mostly up to 45.8 µM; activity change, negative = inhibition: at the top concentration
Procedure, shortened: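 Primary human omental fibroblast/mesothelial 3D culture pre-formed 48 h. SKOV3ip1-GFP cells added with compounds (0.36-46 umol/L), incubated 2 h RT/16 h 37 C, fixed; GFP cells quantified at 488/509 nm.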

Activity change, negative = inhibition, inactive:
COc1cccc(CNC(=O)CCNS(=O)(=O)c2ccc3c(c2)oc(=O)n3C)c1 -2.77%
CCOC(=O)c1[nH]cnc1C(=O)Nc1ccc(F)cc1 3.82%
CCCCN(C)CCNC(=O)c1nn(-c2ccc(OC)cc2)c(=O)c2c1c1ccccc1n2C -1.95%
N#C/C(=C\c1ccc(-c2cc(Cl)ccc2Cl)o1)C(=O)Nc1ccccc1C(=O)O -29.8%
O=C(CSc1nc2ccccc2n1Cc1ccccc1Cl)NCc1ccccc1 -0.432%
CC(C)(C)C(=O)Nc1cccc(C(=O)OCc2cc(=O)n3nc(C4CCCCC4)sc3n2)c1 -3.73%
CCCS(=O)(=O)Nc1cc2c(cc1NCc1ccccc1)n(C)c(=O)n2C -25.7%
CCn1cc2nc(SCc3ccccc3F)n(Cc3ccc(C)cc3)c(=O)c2n1 -1.64%
CCN(Cc1ccccc1)C(=O)CN1C(=O)COc2ccc(S(=O)(=O)N3CCCCCC3)cc21 -3.51%
CCOCCCn1c(SCC(=O)Nc2ccc(OC)cc2OC)nc2ccccc2c1=O 5.68%
COc1cccc(C(=O)c2cn(CC(=O)Nc3cccc(C)c3C)c3nc(C)ccc3c2=O)c1 -4.78%
Cc1ccc(C)c(N2CCN(Cc3nnc(-c4ccccc4)o3)CC2)c1 -23.2%
COc1cc(-c2nnc(SCCOc3ccc(C)c(Cl)c3)o2)cc(OC)c1OC -17.4%
CCOC(=O)CSc1nc2ccc(NC(=O)c3ccccc3)cc2s1 -14.8%
Cc1ccc(CN2CCc3nc(SCC(=O)Nc4cccc(C)c4C)[nH]c(=O)c3C2)cc1 -6.32%
Cc1cccc(C)c1NC(=O)Cn1nc(C)c2sc3ccccc3c2c1=O 6.98%
Cc1ccccc1CN1CCN(CC(=O)NCc2ccccc2Cl)C1=O 0.0512%
O=C(NCCc1csc(-c2ccc(F)cc2)n1)c1ccc(Br)o1 -5.26%
CCSc1ncc(Cl)c(C(=O)Nc2c(C(=O)c3ccccc3)oc3ccccc23)n1 2.19%
CCOC(=O)c1ccc(NC(=O)Cn2cc(C(=O)c3ccc(Cl)cc3)c(=O)c3ccc(C)nc32)cc1 -7.39%
O=C(CCNS(=O)(=O)c1ccc2c(c1)CCN2C(=O)C1CC1)Nc1ccc(F)cc1F -28.1%
Fc1ccc2c(c1)NC(c1ccncc1)=NC(c1cccs1)=N2 4.19%
Cc1cccc(-c2nc(Cn3c(SCc4cccc(C(F)(F)F)c4)nc4ccncc43)c(C)o2)c1 -25.4%
Cn1cnc2c(=O)oc3ccc(S(=O)(=O)N4CCN(c5cccc(Cl)c5)CC4)cc3c21 4.45%
Cc1c(NC(=O)c2cc(=O)c3cc(Cl)ccc3o2)c(=O)n(-c2ccccc2)n1C -24.5%
COC(=O)c1cc2occc2n1Cc1nc(-c2ccc(C)cc2)oc1C -27.2%
Cc1nc2c(C(=O)NC(C)c3ccccc3)cnn2c(C)c1Cc1ccccc1 (configuration not stated) -0.736%
CC1=C(CC(=O)O)c2cc(F)ccc2C1=Cc1ccc(S(C)=O)cc1 (configuration not stated) 36.6%
CCC(=O)Nc1nnc(S(=O)(=O)N2CCc3ccccc32)s1 -23.8%
CCN(Cc1ccccc1)C(=O)C1CCN(S(=O)(=O)c2c(C)noc2/C=C/c2ccc(C)cc2)CC1 11.9%
CCCNCC(O)COc1ccccc1C(=O)CCc1ccccc1 (configuration not stated) -8.02%
Cc1ccc(CCNC(=O)c2ccc(CSCc3ccccc3C)o2)cc1 0.914%
CCC1CN(C(=O)N2CCC(C(=O)O)CC2)c2cc(C)ccc2O1 (configuration not stated) 3.99%
CC(=O)c1nn(-c2ccc(OC(F)(F)F)cc2)nc1Nc1ccc(C)cc1 -3.27%
COc1ccccc1CNC(=O)CS(=O)Cc1nc(-c2ccc(OC)c(OC)c2)oc1C (configuration not stated) 3.64%
CCOC(=O)c1ccc(NC(=O)C2CCN(S(=O)(=O)c3ccc(C)cc3)CC2)cc1 1.6%
CCOc1ccc(CNS(=O)(=O)c2ccc(-c3cc(C(F)(F)F)on3)s2)cc1 -2.11%
COc1ccccc1CNC(=O)c1sc2nc3n(c(=O)c2c1C)CCC3 19%
Cc1cccc(N2CCN(C(=O)c3ccc(NC(=O)c4nsc5ccccc45)cc3)CC2C)c1 (configuration not stated) -14.7%
CCOc1ccc(Cl)cc1C1CC(=O)Nc2cc(OC)c(OC)c(OC)c21 (configuration not stated) 12.9%
CCOc1ccc(-c2cc(C(=O)NCc3ccc(C)cc3)c3ccccc3n2)cc1 2.39%
CCCNc1ccc(-c2nc(-c3ccncc3)no2)cc1[N+](=O)[O-] -5.74%
CCCC(CCC)C(=O)Nc1cccc(-c2cn3cccnc3n2)c1 -6.34%
CCOC(=O)C1CCCN(C(=O)Cn2ncc3c([nH]c4ccc(C)cc43)c2=O)C1 (configuration not stated) 4.46%
COc1cc2[nH]c(=O)n(CCCC(=O)NCc3ccccc3)c(=O)c2cc1OC 9.23%
CCc1ccc(NC(=O)CCCc2nc(-c3ccco3)no2)cc1 0.643%

outcome, inactive:
CCOc1ccc(NC(=O)CSc2nc(-c3ccc(F)cc3)cc(C(F)(F)F)c2C#N)cc1
Cc1ccc2cccc(NC(=O)C(C)(C)Oc3ccc(Br)cc3)c2n1
CCOc1ccc(NC(=O)CCS(=O)(=O)c2ccc3c(c2)n(C)c(=O)c(=O)n3C)cc1
Cc1ccc(NC(=O)CCS(=O)(=O)c2cccc3nsnc23)c(C)c1
CCOC(=O)c1ccccc1NC(=O)Cn1c2ncccc2c(=O)n1-c1ccccc1
CCc1ccc(C(=O)Nc2ccc3nn(-c4ccc(C)c(Cl)c4)nc3c2)cc1
COc1ccc(-c2cn3c(n2)sc2cc(C(=O)Nc4cc(Cl)ccc4C)ccc23)cc1
COc1ccc2oc(-c3ccc(C)c(NC(=O)Cc4ccc(Cl)cc4)c3)nc2c1
Cc1nc2cc(-c3ccccc3)nn2c(C)c1CCC(=O)N1CCN(c2ccccc2)CC1
COc1cc(OC)cc(-c2nc3nc(C)c(CCC(=O)Nc4cc(F)ccc4F)c(C)n3n2)c1
Cc1cccc(NC(=O)c2cc(S(=O)(=O)N3CCC4(CC3)OCCO4)ccc2F)c1
COc1ccc(N2CC(NC(=O)c3ccc(S(=O)(=O)N4CCCCC4)cc3)CC2=O)cc1OC (configuration not stated)
Cc1ccc2nc(-c3ccc(NC(=O)COc4ccc(Cl)c(C)c4)cc3)sc2c1
COc1ccc(Nc2cc(C)c3cc(NC(=O)Cc4c(F)cccc4Cl)ccc3n2)cc1
CCn1c(SCc2ccccc2F)nc(=O)c2c(C(=O)OC)cc(C3CC3)nc21
Cc1ccc(C)c(N2CCN(C(=O)c3ccc4[nH]c(C)c(C)c4c3)CC2)c1
